# Assay results published in PubChem BioAssay AID504339 (National Center for Advancing Translational Sciences (NCATS), 2011).
# Hit rate of the full screen: of about 390,000 compounds, about 17,000 (4.4%) were called active. The shares of active, inactive and inconclusive entries below differ from those in the screen. Calls follow the shape of the dose curve; as a rule, active = well fitted inhibition curve with a large enough effect; inconclusive = small, poorly fitted or top-dose-only effect; inactive = no such curve, though single readings can be large or run the other way. Potencies beside an inconclusive call are fits to weak or partial responses and may not hold up.
# Target: Lysine-specific demethylase 4A (Homo sapiens) (UniProt O75164)
# Experiment: qHTS Assay for Inhibitors of JMJD2A-Tudor Domain; also: nearly all actives have a fitted effect of over 50% in size
# Conditions: AlphaScreen JMJD2A-Tudor / H3K4me3 peptide binding; activity change, negative = inhibition: at 114 µM (top of the series)
# % is scaled to controls: 0 for no effect and ±100 for the full control effect; potency is read from the fitted curve at half-maximal effect; tags tell the direction and shape of the fitted curve.
# Sequence of UniProt O75164 (O75164 whole entry, looked up, the tested form may be a part): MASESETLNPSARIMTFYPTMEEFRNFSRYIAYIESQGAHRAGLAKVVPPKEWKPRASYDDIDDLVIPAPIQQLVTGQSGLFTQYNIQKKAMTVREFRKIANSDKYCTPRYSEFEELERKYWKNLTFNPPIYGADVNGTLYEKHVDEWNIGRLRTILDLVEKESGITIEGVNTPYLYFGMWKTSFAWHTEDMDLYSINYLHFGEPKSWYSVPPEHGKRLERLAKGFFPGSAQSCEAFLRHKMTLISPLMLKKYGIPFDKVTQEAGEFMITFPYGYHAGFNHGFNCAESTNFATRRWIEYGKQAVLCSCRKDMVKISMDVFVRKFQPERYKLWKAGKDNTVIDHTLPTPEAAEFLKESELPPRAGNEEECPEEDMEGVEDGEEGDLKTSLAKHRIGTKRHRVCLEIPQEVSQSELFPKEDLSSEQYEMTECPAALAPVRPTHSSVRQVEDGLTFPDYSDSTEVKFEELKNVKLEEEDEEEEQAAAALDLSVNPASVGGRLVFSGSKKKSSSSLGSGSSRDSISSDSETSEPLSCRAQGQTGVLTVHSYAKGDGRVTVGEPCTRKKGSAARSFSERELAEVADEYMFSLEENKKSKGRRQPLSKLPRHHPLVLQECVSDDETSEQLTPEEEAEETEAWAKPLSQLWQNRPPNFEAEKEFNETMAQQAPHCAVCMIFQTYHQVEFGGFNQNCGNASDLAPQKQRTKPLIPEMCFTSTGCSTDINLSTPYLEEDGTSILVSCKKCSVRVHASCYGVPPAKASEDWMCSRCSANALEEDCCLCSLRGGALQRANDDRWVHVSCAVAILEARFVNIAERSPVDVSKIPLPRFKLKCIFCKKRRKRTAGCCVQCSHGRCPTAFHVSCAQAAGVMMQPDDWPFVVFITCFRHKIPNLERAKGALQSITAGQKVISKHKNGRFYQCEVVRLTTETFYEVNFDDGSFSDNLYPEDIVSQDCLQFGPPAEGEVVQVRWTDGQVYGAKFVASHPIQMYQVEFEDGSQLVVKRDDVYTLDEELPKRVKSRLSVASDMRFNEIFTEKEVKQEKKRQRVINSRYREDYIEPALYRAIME
SMILES,Potency,"activity change, negative = inhibition"
Cc1ccc(-n2cc(CN(C)Cc3nccn3C)c(-c3cccc(C)c3)n2)cc1,"inconclusive: 56.2 µM [inhibitor, partial curve]",–
COCCn1c(C)cc(C(=O)COC(=O)c2ccc(Cl)c(S(N)(=O)=O)c2)c1C,"inconclusive: 39.8 µM [inhibitor, partial curve]",–
CC(=O)c1cc(C(=O)N2CCc3c([nH]c4ccccc34)C2CC(C)C)[nH]n1 (stereo not drawn),"inconclusive: 56.2 µM [inhibitor, partial curve]",–
Cc1cc(-c2nnc(SCC(=O)Nc3ccccn3)o2)no1,"inconclusive: 89.1 µM [inhibitor, partial curve, poor fit]",–
CN(C)c1ccc(NC(=S)NCC2CCCO2)cc1 (stereo not drawn),"inconclusive: 89.1 µM [inhibitor, single point]",–
Fc1ccc2c(c1)C1OCCCC1C(c1ccccc1)N2 (stereo not drawn),"inconclusive: 56.2 µM [inhibitor, partial curve]",–
CC(c1ccc(F)cc1)n1cc(S(=O)(=O)N2CCCC2)ccc1=O (stereo not drawn),–,inactive: 0.338%
C=C(C)C(=O)Nc1cccc(C2=NOC3(C2)C[C@@H](C(N)=O)N(C(=O)c2cc([N+](=O)[O-])cc([N+](=O)[O-])c2C)C3)c1 (stereo partly drawn),active: 17.8 µM,–
CCn1c(=O)cc(OCC(=O)N2CCCC2)c2ccccc21,"inconclusive: 25.1 µM [inhibitor, full curve]",–
CCCc1[nH]nc2c1C(c1ccc(Br)s1)C(C#N)=C(N)O2 (stereo not drawn),"inconclusive: 56.2 µM [inhibitor, partial curve]",–
CC1CCCN(S(=O)(=O)c2ccc(NC(=O)CN3CCCCC3)cc2)C1 (stereo not drawn),"inconclusive: 3.55 µM [inhibitor, single point]",–
COC(=O)c1cc(COc2ccc3oc(C)c(C(=O)OC(C)C)c3c2)c(C)o1,–,inactive: -5.33%
O=C(Nc1nnc(-c2ccccc2)o1)c1cccc(N2C(=O)CCC2=O)c1,"inconclusive: 63.1 µM [inhibitor, single point]",–
CCCCN(CC)C(=O)CCCn1c(=O)c2cccn2c2ccccc21,–,inactive: -17.1%
COc1ccccc1Oc1ccc2c(c1)C(=O)N(c1cccc(O)c1)C2=O,"inconclusive: 63.1 µM [inhibitor, partial curve]",–
NS(=O)(=O)c1ccccc1,–,inactive: -15.1%
COc1ccccc1CNC(=O)c1ccccc1SCC(=O)NCc1ccco1,–,inactive: -34.5%
CC(NC(=O)COC(=O)C1CC2CCCC(C1)C2=O)c1ccccc1 (stereo not drawn),–,inactive: -9.12%
CCCCOc1cccc(C(=O)NC(=S)Nc2ccc(Cl)c(C(=O)O)c2)c1,–,inactive: -12.3%
CC(C)C[C@H]1CNC(=S)N1CC1CCCN1C[C@H](CC(C)C)N1C[C@H](Cc2ccc(O)cc2)N(CC2CCCCCC2)C1=S (stereo partly drawn),"inconclusive: 10 µM [inhibitor, full curve]",–
O=C(NCCO)Nc1ccc2nsnc2c1,–,inactive: -3.45%
Cc1cccc(CN2CCC(CNc3ncnc4onc(-c5ccc(Cl)cc5)c34)CC2)c1,"inconclusive: 100 µM [inhibitor, single point]",–
Cc1cc(S(=O)(=O)N2CCOCC2)ccc1F,active: 79.4 µM,–
CC1=C(C(=O)OC(C)C)C(c2ccc(Cl)cc2)n2c(s/c(=C\c3ccc(OCC(=O)O)cc3)c2=O)=N1 (stereo not drawn),"inconclusive: 28.2 µM [inhibitor, full curve]",–
CC(=O)Nc1cccc(-c2csc(NCc3ccccc3)n2)c1,active: 12.6 µM,–

SMILES,Potency,"activity change, negative = inhibition"
CC1=C(C(=O)OCC2CCCO2)C(c2ccc(Cl)cc2)NC(=O)N1 (stereo not drawn),–,inactive: -10.1%
CCCn1c(=O)[nH]c2ccccc21,–,inactive: -8.96%
CCOC(=O)c1c(N)sc(C(O)(C(F)(F)F)C(F)(F)F)c1-c1ccc(F)cc1,"inconclusive: 79.4 µM [inhibitor, partial curve]",–
CCc1ccc(CN2CCN(S(=O)(=O)Cc3ccccc3)CC2)cc1,active: 0.794 µM,–
Cc1c(OCC(=O)N[C@H](C(=O)O)c2ccccc2)ccc2c3c(c(=O)oc12)CCCC3,"inconclusive: 89.1 µM [inhibitor, single point]",–
CCOC(=O)c1cnc(N2CCN(c3ccc(OC)cc3)CC2)c2ccccc12,"inconclusive: 20 µM [inhibitor, full curve]",–
Cc1ccc(N=C2NC(=O)/C(=C\c3ccco3)S2)cc1,"inconclusive: 25.1 µM [inhibitor, single point]",–
COCC(=O)Nc1ccc(N2CCOCC2)c(S(=O)(=O)Nc2ccccc2OC)c1,–,inactive: -32.9%
COc1ccc(C(=O)Nc2ccc(-c3n[nH]c(=S)o3)cc2)cc1OC,"inconclusive: 44.7 µM [inhibitor, partial curve]",–
Cc1ccc(/C=N/N2CCN(Cc3ccc(Cl)cc3)CC2)o1,"inconclusive: 56.2 µM [inhibitor, partial curve]",–
Cc1ccc(S(=O)(=O)c2cc3ccccc3oc2=Nc2ccc3c(c2)OCO3)cc1,"inconclusive: 3.55 µM [inhibitor, full curve]",–
O=c1cc(-c2ccsc2)oc2ccc(-c3ccc4cc[nH]c4c3)cc12,"inconclusive: 50.1 µM [inhibitor, full curve]",–
COc1ccc(/C=C/C(=O)c2ccc(O)cc2)cc1COc1ccc(F)cc1,"inconclusive: 50.1 µM [inhibitor, partial curve]",–
CCN(CC)C(=O)COc1ccc(/C(C)=N/Nc2ncc(Cl)cc2Cl)cc1,–,inactive: -22.2%
Cc1cc(O)c(C=O)c2c1C(=O)Oc1c(CO)c(O)c3c(c1O2)C(O)OC3=O (stereo not drawn),active: 3.16 µM,–
Cc1ccc2nc(C(Cl)(Cl)Cl)nc(N/N=C/c3ccc([N+](=O)[O-])cc3)c2c1,–,inactive: -19%
O=C1OC(c2ccccc2)=N/C1=C\C=C\c1ccccc1[N+](=O)[O-],–,inactive: -26.4%
N#Cc1ccc(OCC(O)CN2CCN(C(c3ccccc3)c3ccccc3)CC2)cc1 (stereo not drawn),"inconclusive: 11.2 µM [inhibitor, full curve]",–
CCC1=C(OC(=O)N(CC)CC)N2C(=O)OC(=NCC3CC3)[C@]2(Cc2ccccc2)[C@H]2C1=CC[C@H]1C(=O)N(CC(=O)OC)C(=O)[C@H]12,"inconclusive: 89.1 µM [inhibitor, partial curve]",–
CC(=O)Nc1ccc2c(c1)C(=Nc1ccc(C)cc1)c1ccccc1-2,–,inactive: -27.4%
COc1cc(NC(=O)Cn2c(-c3ccccc3)cc(C(C)=O)c2C)cc(OC)c1,–,inactive: -8.33%
O=S(=O)(O)c1ccc(SCc2ccccc2)nc1,active: 89.1 µM,–
Cc1cccc(NC(=S)NNC(=O)CCn2nc(C)c([N+](=O)[O-])c2C)c1,–,inactive: -8.96%
O=C(c1ccc(Br)cc1)c1cc([N+](=O)[O-])ccc1N1CCOCC1,"inconclusive: 25.1 µM [inhibitor, full curve]",–
Cc1ccc(C2CC(=O)n3nc(-c4ccc(F)cc4)nc3S2)cc1 (stereo not drawn),–,inactive: -1.04%

SMILES,Potency,"activity change, negative = inhibition"
CCOC(=O)c1ccccc1NC(=O)N(Cc1ccc(CC)cc1)Cc1cn[nH]c1-c1ccc(OC)cc1,–,inactive: 16.6%
Cc1ccc(S(=O)(=O)N2CCC(C(=O)OCC(=O)NCc3ccco3)CC2)cc1C,–,inactive: -14.6%
CC1CCCCN1C(=S)NC(=O)c1ccco1 (stereo not drawn),–,inactive: -35.7%
CCCCNc1c(-c2ccc(SC(C)CC)c(OC)c2)nc2ccc(Cl)cn12 (stereo not drawn),"inconclusive: 56.2 µM [inhibitor, partial curve]",–
COc1ccc(N2CCN(S(=O)(=O)c3c(C)noc3/C=C/N(C)C)CC2)cc1,"inconclusive: 10 µM [inhibitor, partial curve, poor fit]",–
O=C(CNC(c1ccccc1)c1ccccc1)Nc1cc([N+](=O)[O-])ccc1Cl,"inconclusive: 15.8 µM [inhibitor, single point]",–
CCOC(=O)C1Nc2ccc(Br)cc2C2C=CCC12 (stereo not drawn),active: 39.8 µM,–
O=C(Nc1ccc([N+](=O)[O-])cc1Cl)c1cc(Br)ccc1O,"inconclusive: 63.1 µM [inhibitor, partial curve]",–
CN(C)c1ccc(-c2sc(Nc3ccccc3)n[n+]2-c2ccc(F)cc2)cc1,"inconclusive: 89.1 µM [inhibitor, single point]",–
O=[N+]([O-])c1ccc(O)c(-c2nc(-c3ccccc3)c(-c3cccs3)[nH]2)c1,active: 44.7 µM,–
Cc1cccc(NC(=O)c2cccc(N3CCCS3(=O)=O)c2)c1,–,inactive: -0.974%
O=[N+]([O-])c1ccc(-c2c(-c3ccccc3)ncc3ccc(F)cc23)cc1,"inconclusive: 35.5 µM [inhibitor, partial curve]",–
CCC1CN(C(=O)N2CCC(C(=O)NCCCc3ccccc3)CC2)c2cc(C)ccc2O1 (stereo not drawn),"inconclusive: 14.1 µM [inhibitor, full curve]",–
Nn1c(Cc2cccc3ccccc23)nnc1SC1CCOC1=O (stereo not drawn),active: 89.1 µM,–
O=C(CC(=O)NC1CCCCC1)N/N=C/c1ccccc1[N+](=O)[O-],–,inactive: 2.14%
C=CCN1C(=O)C(O)(CC(=O)c2ccc(-n3cccc3)cc2)c2ccccc21 (stereo not drawn),"inconclusive: 20 µM [inhibitor, full curve]",–
COc1ccccc1-n1c(-c2ccc(F)cc2)coc1=O,–,inactive: -10.5%
CCOC(=O)c1nn(-c2ccccc2)c2nnc(Cc3ccccc3)c(=O)n12,"inconclusive: 89.1 µM [inhibitor, single point]",–
CCCOC(=O)c1ccc(Oc2cn[nH]c2-c2ccc(O)cc2O)cc1,"inconclusive: 12.6 µM [inhibitor, partial curve]",–
O=C(NC1CC1)c1ccc2c(c1)C1C3CCC(C3)C1C(c1ccccc1)N2 (stereo not drawn),"inconclusive: 89.1 µM [inhibitor, single point]",–
CCOC(=O)C1=NOC2COC3(CCN(c4ncccn4)CC3)OCC12 (stereo not drawn),–,inactive: -7.75%
COc1cc2nc(CN3CCN(C(C)=O)CC3)[nH]c(=O)c2cc1OC,–,inactive: -2.37%
Cc1ccc(OCC(COCc2ccccc2)NC(C)C)cc1 (stereo not drawn),active: 1.41 µM,–
